# Measurements: the supplement of paper PMC3334620
# The full ranking holds about 33,000 sequences; the median of “E-score (-0.5 to 0.5)” is about -0.017, and the highest 2% start at about 0.3. This is one part of the list.
# Biological target: T1, Sut1 (UniProt P53032)
# T1 sequence: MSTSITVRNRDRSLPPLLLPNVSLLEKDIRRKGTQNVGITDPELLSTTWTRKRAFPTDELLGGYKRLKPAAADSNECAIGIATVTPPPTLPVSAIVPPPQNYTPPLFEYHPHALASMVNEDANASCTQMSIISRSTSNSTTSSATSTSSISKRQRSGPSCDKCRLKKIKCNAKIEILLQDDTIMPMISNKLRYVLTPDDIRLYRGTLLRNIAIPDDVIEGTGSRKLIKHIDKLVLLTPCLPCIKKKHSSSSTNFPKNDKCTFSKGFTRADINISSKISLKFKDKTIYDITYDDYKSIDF
# Test: PBM E-score (8-mer binding enrichment) (E-score (-0.5 to 0.5)); higher = stronger / more preferred TF binding; most listed sequences are background and not binding sites
# Conditions: protein concentration: 200 nM; construct: GST-full length
# Summary of the method: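 For each ungapped eight-base word taken together with its reverse complement, the Universal PBM Analysis Suite assigned an E-score. Binding data came from GST-tagged yeast transcription factors, applied at about 100-200 nM, on universal all-10-mer Agilent arrays made double-stranded by primer extension. Fluorescent anti-GST marked bound protein, and scans were normalised with masliner.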
row,Sequence,PBM E-score
1,AAAGCATT,0.0887
2,AACCCAGT,-0.032
3,CGATCTAA,0.0621
4,GGGGGACC,-0.421
5,CACTGCCA,-0.0425
6,AAGGTGTA,-0.0126
7,CAAATCCG,0.0586
8,CAATGGTC,0.00196
9,AGAATACG,-0.039
10,CACAACAG,-0.197
11,CTTGGTCC,0.122
12,AAGGGAAG,-0.076
13,AACCGGGA,-0.0112
14,CAGCAGGA,-0.211
15,GAACACAC,-0.0338
16,TCAGTGCA,-0.0982
17,AAAGGTTC,0.053
18,CCGGCAGA,-0.145
19,CGGCGATC,-0.0258
20,GCGCCGGA,0.196
21,ATCGAGCC,-0.218
22,CGGCCCCA,-0.4
23,GCTTAACA,0.133
24,CATGCATA,0.0165
25,TGAAGGCA,-0.128

row,Sequence,PBM E-score
1,CTCACATA,-0.0417
2,TAGTGGAA,-0.0866
3,TCGGTGCA,0.0194
4,AGAGACAG,-0.00546
5,GTGCAGAA,-0.116
6,AGATTAGC,0.0249
7,CTAGGATC,-0.16
8,ATTTGGAA,0.0805
9,TAATTCCA,0.129
10,CTTGCGAC,-0.165
11,AAGGTCAA,-0.0141
12,AACTCCAC,0.166
13,GCAGAGCA,-0.116
14,ATAGGGTA,0.19
15,GAGTCCTA,-0.0527
16,ACGCTTAT,-0.0903
17,GACCAGGC,-0.157
18,CAATAGTA,-0.0175
19,AAGTACTC,0.0904
20,GTTGTCCA,0.0464
21,GTTCGTAA,0.0781
22,AAATCCAG,0.081
23,AGAATGAT,0.165
24,CTTTAGTA,-0.0309
25,AGCTGTGA,-0.106

row,Sequence,PBM E-score
1,TCGAGAGA,0.0126
2,GCACGACA,-0.237
3,GATTCTAC,0.0341
4,GTGATTAA,0.158
5,AAAAGTCG,0.134
6,ACGGAATC,0.252
7,AAACCAGT,-0.0312
8,CGGCCGCA,-0.193
9,CAATCTCA,-0.0455
10,AAACGCGT,-0.051
11,GCGGTTCC,0.16
12,AACTCCAT,0.269
13,CCCGGTTA,-0.115
14,ACCCTGTG,-0.139
15,ATACTCCA,-0.0121
16,GCAGCCAC,-0.0917
17,CGAACTCA,-0.0187
18,TAGGAGCA,-0.215
19,AGTTTGCG,-0.0449
20,AATATTTC,0.267
21,CGATCGTA,-0.0653
22,AAGAATGG,0.174
23,CTGCCCTA,-0.0386
24,GATGTCGA,0.175
25,CTAAGCCC,-0.193

row,Sequence,PBM E-score
1,AAGGTAAT,0.22
2,CTACCTAG,-0.145
3,CGAGGGAC,-0.339
4,AACTGGCG,-0.128
5,CTACAAGC,-0.0782
6,ACAAAATG,0.141
7,CTCGTTCC,0.00014
8,GGTAGCGA,-0.00384
9,TCCTATCA,0.0271
10,ATTCTATA,0.16
11,ATACGCTG,0.025
12,GGACGAGA,-0.0779
13,CTAAGGTC,-0.146
14,CATGGGCG,-0.16
15,AAGAACTC,0.255
16,GCCTGAGA,-0.155
17,GCAAGCAC,-0.185
18,TATACACA,0.194
19,ATGTCATG,-0.0163
20,ATCATGTA,0.0818
21,GATACCGC,-0.0884
22,ATTCGTAA,0.177
23,CGAGACCA,-0.0257
24,CGTCACAA,-0.132
25,CAGTTAGA,-0.00486

row,Sequence,PBM E-score
1,CCCCTCTC,-0.295
2,ATGATCGC,-0.106
3,AGCGGGAA,0.0325
4,ATGACACA,0.104
5,AATTGATA,0.268
6,CTTCCTCA,0.0517
7,CAGTACCA,-0.148
8,AGATCCTG,-0.102
9,CAGTGGAA,-0.111
10,GTTACGCA,-0.0591
11,CCGCATCA,0.0522
12,AATTGACG,0.0866
13,CGGATACA,0.176
14,CCTTAACC,-0.177
15,CCAGAGCA,-0.0943
16,CATGGCCA,-0.251
17,ACGATTAC,-0.0111
18,GATTAGGC,0.0483
19,GAAGCTCA,-0.033
20,CGCCTCCC,-0.29
21,AAAACGGG,0.164
22,AGGCAGCC,0.0036
23,AATTGGGG,-0.0626
24,AACCCGTT,-0.232
25,GCTCAGAC,-0.101

row,Sequence,PBM E-score
1,CACCCAGC,-0.249
2,ACTCGAGT,0.0517
3,AGAATGAA,0.052
4,AGACGGTA,0.0224
5,TCGGCTAA,0.00903
6,TAGTTGGA,0.134
7,CCACCGAC,-0.199
8,AATCCTGC,-0.135
9,AAAGAGAT,-0.0263
10,TACAGATA,0.232
11,ACACGGTA,-0.0295
12,ACAACGGT,-0.0817
13,TAGCTGCA,-0.21
14,ATATGGGC,-0.087
15,AAACGATG,0.13
16,GAAAAGGC,0.0202
17,ATATGCCA,-0.0276
18,AACCCGGT,-0.154
19,TACACCGA,0.106
20,TCAACAAA,0.17
21,GTGCCTGA,-0.163
22,AACACATA,0.185
23,GAAGAGCA,-0.0746
24,ACGCGCAC,-0.121
25,CTTGCTTA,-0.095

row,Sequence,PBM E-score
1,CCACGCAA,-0.0607
2,CAAGAGCA,-0.255
3,ATCCACCA,-0.0174
4,GAACAACC,0.167
5,CACGACTC,-0.0632
6,AATGCCGC,-0.0558
7,CGGCACCG,0.201
8,CAAACTTG,0.0533
9,ATTGTAAG,0.0414
10,CAATGCTC,-0.0941
11,AAGTCCCC,0.0106
12,CTATGAGC,-0.0667
13,CATAGTAG,-0.116
14,AAGTACGG,-0.0591
15,TAGCTAGA,-0.11
16,GAGGGTGA,-0.191
17,AACCCGGG,-0.0177
18,GACGTTGC,-0.0761
19,ATATCATA,0.236
20,ATATGCGC,-0.169
21,ATGAGGCA,-0.194
22,CATCCAAC,0.0969
